Assay [1] has as its system HSkMC (human skeletal muscle cells). As to the kind of experiment: cytotoxicity call (relative viability < 0.9). As to conditions: 10 µM.
For assay [2], the system named is S. aureus RN4220. Put plainly: growth inhibition call (relative growth <= 0.2). The settings on record: 50 µM.

Some of the results follow.

In the case of `C[C@@H]1CN([C@H](C)CO)C(=O)c2cccc(NC(=O)Nc3ccc4c(c3)OCO4)c2O[C@H]1CN(C)Cc1ccc(Cl)c(Cl)c1`, the cytotoxicity call in assay [1] was “inactive”. In assay [2], the growth inhibition call is “inactive”.

In the case of `O=C(C[C@H]1C[C@H]2c3cc(NC(=O)c4ccc5c(c4)OCO5)ccc3O[C@H]2[C@H](CO)O1)NCc1cccnc1`, in assay [1], the cytotoxicity call was “inactive”. Moreover, the growth inhibition call in assay [2] is “inactive”.

As to `C[C@]12C[C@@H]3C[C@](C)(C1)C[C@@](N)(C3)C2`, the cytotoxicity call in assay [1] was “inactive”. Further, in assay [2], the growth inhibition call was “inactive”.

With `C[C@@H]1CCCCO[C@@H](CN(C)C(=O)CCC(F)(F)F)[C@H](C)CN([C@@H](C)CO)C(=O)c2cc(NC(=O)Nc3ccccc3)ccc2O1`, the cytotoxicity call in assay [1] is “inactive”. Besides, in assay [2], the growth inhibition call is “inactive”.

As to `C[C@H]1CN([C@@H](C)CO)C(=O)c2cccc(NC(=O)NC3CCCCC3)c2O[C@@H]1CN(C)C(=O)Nc1ccc(C(F)(F)F)cc1`, the cytotoxicity call in assay [1] was “inactive”. Moreover, in assay [2], the growth inhibition call is “inactive”.

For `O=C(Nc1nccs1)[C@H]1[C@H](CO)[C@H]2Cn3c(cccc3=O)[C@@H]1N2C(=O)C1CC1`, in assay [1], the cytotoxicity call is “inactive”. Further, in assay [2], the growth inhibition call is “inactive”.

Regarding `Cc1n[nH]c(=O)[nH]c1=O`, the cytotoxicity call in assay [1] was “inactive”. In addition, the growth inhibition call in assay [2] is “inactive”.

As to `COc1ccc2c3c([nH]c2c1)[C@H](CO)N(C[C@]13CCN(CC1)S(=O)(=O)C)C(=O)Nc1ccc(cc1)F`, in assay [1], the cytotoxicity call was “inactive”. Besides, in assay [2], the growth inhibition call was “inactive”.

On to `COc1ccc(S(=O)(=O)N(C)C[C@H]2Oc3ccc(NC(=O)NC(C)C)cc3C(=O)N([C@@H](C)CO)C[C@@H]2C)cc1`, for which the cytotoxicity call in assay [1] was “inactive”. For the same compound, the growth inhibition call in assay [2] was “inactive”.

Turning to `C=CCOc1ccc(C(=O)C2=C(O)C(=O)N(CCCN3CCOCC3)[C@@]23C(=O)N(C)c2ccccc23)cc1C`, the cytotoxicity call in assay [1] was “inactive”. Further, the growth inhibition call in assay [2] is “inactive”.

For the compound `C[C@@H]1CN([C@@H](C)CO)C(=O)c2cccc(NS(=O)(=O)c3ccccc3)c2O[C@@H]1CN(C)S(=O)(=O)c1cn(C)cn1`, in assay [1], the cytotoxicity call is “inactive”. In assay [2], the growth inhibition call was “inactive”.

On to `CC(=O)Nc1ccc(CC(=O)O)cc1`, for which the cytotoxicity call in assay [1] was “inactive”. Besides, the growth inhibition call in assay [2] was “inactive”.

On to `Cc1noc(C)c1S(=O)(=O)N(C)C[C@@H]1Oc2ccc(NC(=O)Cc3cn(C)c4ccccc34)cc2CC(=O)N([C@@H](C)CO)C[C@@H]1C`, for which, in assay [1], the cytotoxicity call is “active”. The growth inhibition call in assay [2] is “inactive”.

As to `Cc1cc(Cn2c(=O)n(Cc3cnc(C)s3)c(=O)c3cc(S(=O)(=O)NC4(C)CC4)ccc32)n(C)n1`, in assay [1], the cytotoxicity call is “inactive”. For the same compound, the growth inhibition call in assay [2] was “inactive”.

In the case of `C[C@@H]1CCCCO[C@@H](CN(C)S(=O)(=O)c2ccc(Cl)cc2)[C@@H](C)CN([C@@H](C)CO)C(=O)c2cc(NC(=O)Nc3ccc(C(F)(F)F)cc3)ccc2O1`, the cytotoxicity call in assay [1] is “inactive”. The growth inhibition call in assay [2] is “inactive”.

On to `O=C(N[C@@H](c1ccc(-c2ccccc2)cc1)c1cnccn1)C1CCN(Cc2cccc(C(F)(F)F)c2)CC1`, for which the cytotoxicity call in assay [1] was “inactive”. In addition, the growth inhibition call in assay [2] is “inactive”.

On to `C[C@@H]1CN([C@H](C)CO)C(=O)c2cc(NS(=O)(=O)c3ccc(Cl)cc3)ccc2O[C@@H](C)CCCCO[C@@H]1CN(C)Cc1ccc(C(F)(F)F)cc1`, for which the cytotoxicity call in assay [1] is “inactive”. Moreover, the growth inhibition call in assay [2] is “inactive”.

With `CC1(C)CC[C@]2(C(=O)O[C@@H]3O[C@H](CO[C@@H]4O[C@H](CO)[C@@H](O)[C@H](O)[C@H]4O)[C@@H](O)[C@H](O)[C@H]3O)CC[C@]3(C)C(=CC[C@H]4[C@@]5(C)CC[C@H](O[C@@H]6OC[C@H](O)[C@H](O)[C@H]6O)C(C)(C)[C@@H]5CC[C@]43C)[C@@H]2C1`, in assay [1], the cytotoxicity call was “inactive”. Moreover, the growth inhibition call in assay [2] was “inactive”.

Regarding `CO[C@H]1CN(C)C(=O)c2ccc(NS(C)(=O)=O)cc2OC[C@@H](C)N(C(=O)C2CCOCC2)C[C@@H]1C`, the cytotoxicity call in assay [1] was “inactive”. Besides, the growth inhibition call in assay [2] was “inactive”.

`C[C@@H]1CN([C@@H](C)CO)C(=O)Cc2cc(NC(=O)Nc3cccc4ccccc34)ccc2O[C@@H]1CN(C)S(=O)(=O)c1ccc(F)cc1`: the cytotoxicity call in assay [1] is “inactive”. Also, the growth inhibition call in assay [2] was “inactive”.

For `COc1ccc(NC(=O)Nc2ccc3c(c2)C(=O)N([C@H](C)CO)C[C@H](C)[C@@H](CN(C)S(C)(=O)=O)O3)cc1`, the cytotoxicity call in assay [1] is “inactive”. Besides, in assay [2], the growth inhibition call was “inactive”.

On to `O=C1c2ccccc2C(=O)C1c1ccc(Cl)cc1`, for which the cytotoxicity call in assay [1] was “inactive”. In assay [2], the growth inhibition call is “inactive”.

With `CC(O)C(N)C(=O)O` (stereo not given), the cytotoxicity call in assay [1] was “inactive”. In assay [2], the growth inhibition call is “inactive”.

Turning to `C1CC(N2CCNCC2)C1`, in assay [1], the cytotoxicity call is “inactive”. The growth inhibition call in assay [2] was “inactive”.

Take `COc1ccc(C#Cc2cnc3c(c2)C(=O)N([C@@H](C)CO)C[C@H](C)[C@H](CN(C)C(=O)CC2CC2)O3)cc1`: the cytotoxicity call in assay [1] was “inactive”. Besides, the growth inhibition call in assay [2] is “inactive”.

Turning to `C[C@@H]1CCCCO[C@@H](CN(C)C(=O)Nc2cccc3ccccc23)[C@@H](C)CN([C@H](C)CO)C(=O)c2cc(NS(=O)(=O)c3ccc(Cl)cc3)ccc2O1`, the cytotoxicity call in assay [1] is “inactive”. The growth inhibition call in assay [2] is “inactive”.

Turning to `O=C(C[C@@H]1C[C@@H]2c3cc(NC(=O)c4ccc5c(c4)OCO5)ccc3O[C@@H]2[C@@H](CO)O1)NCCc1ccccc1`, in assay [1], the cytotoxicity call was “inactive”. For the same compound, the growth inhibition call in assay [2] is “inactive”.

Regarding `COc1ccc(S(=O)(=O)Nc2ccc3c(c2)C(=O)N([C@H](C)CO)C[C@@H](C)[C@@H](CN(C)S(=O)(=O)c2cn(C)cn2)O3)cc1`, in assay [1], the cytotoxicity call is “inactive”. The growth inhibition call in assay [2] was “inactive”.

For the compound `Cc1noc(C)c1NC(=O)N(C)C[C@@H]1Oc2c(NC(=O)Nc3cccc4ccccc34)cccc2C(=O)N([C@H](C)CO)C[C@@H]1C`, the cytotoxicity call in assay [1] is “inactive”. Moreover, the growth inhibition call in assay [2] was “inactive”.

For `COc1ccc(NC(=O)N(C)C[C@@H]2OCCCC[C@@H](C)Oc3ccc(NS(=O)(=O)c4c(C)noc4C)cc3C(=O)N([C@@H](C)CO)C[C@H]2C)cc1`, in assay [1], the cytotoxicity call was “inactive”. For the same compound, the growth inhibition call in assay [2] was “inactive”.

The record behind these values is the antibiotic and cytotoxicity screens of Wong et al. (2023).
